From PubChem BioAssay AID1963576 (National Center for Advancing Translational Sciences (NCATS), 2024)
Screen size: about 46,000 compounds; about 60 (0.1%) were called active. Roughly 3% stayed inconclusive and do not appear here. Calls come from the whole dose curve; as a rule, active = well fitted inhibition curve with a large enough effect; inconclusive = small, poorly fitted or top-dose-only effect; inactive = no such curve, though single readings can be large or run the other way. The list shows a part of the results.

Assay: Primary qHTS assay for Inhibitors of ovarian cancer metastasis using an organotypic tumor microenvironment (TME) model.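 For activity change, negative = inhibition: plate controls were DMSO wells for no effect and tomatine positive control wells for full effect.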 Note: nearly all actives have a fitted effect of over 65% in size.
Details: SKOV3ip1-GFP adhesion/invasion on 3D omental model, fluorescence; series mostly up to 45.8 µM; activity change, negative = inhibition: at the top concentration
Outline: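 Primary human omental fibroblast/mesothelial 3D culture pre-formed 48 h. SKOV3ip1-GFP cells added with compounds (0.36-46 umol/L), incubated 2 h RT/16 h 37 C, fixed; GFP cells quantified at 488/509 nm.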

Activity change, negative = inhibition, inactive:
CCN1CCN(c2nnc(-n3cccc3C(=O)NCc3ccccc3OC)s2)CC1 -7.07%
O=C(Cn1ncc2c3ccccc3n(Cc3ccccc3F)c2c1=O)N1CCCCCC1 1.27%
O=C(c1noc2c1CCCCC2)N1CCN(c2cccc(Cl)c2)CC1 2.96%
CCc1ccccc1NC(=O)Cn1nnc2sc3c(c2c1=O)CCC(C(C)(C)C)C3 (configuration not stated) 4.09%
O=C(c1cc2ccc3cccnc3c2[nH]1)N1CCCCC1 2.15%
Cc1ccc(C)c(NC(=O)Cc2coc3cc(C)cc(C)c23)c1 0.735%
O=C(NCCc1csc(-c2cccc(F)c2)n1)C(=O)Nc1cc(F)ccc1F 5.26%
Cc1cccc(NC(=O)CSc2ccc(-c3sc(-c4ccccc4)nc3C)nn2)c1C 2.83%
CC(=O)c1ccc(N2CCN(C(=O)c3cc(S(=O)(=O)N4CCCCCC4)cn3C)CC2)cc1 17.3%
CC(=O)Nc1cccc(NC(=O)CSc2nccn2Cc2ccc3c(c2)OCO3)c1 -10.3%
CCOC(=O)c1cc2c(=O)n3ccccc3nc2n(CC2CCCO2)c1=NC(=O)c1ccccc1Br (configuration not stated) -17.6%
Cc1cc(C(=O)Nc2c(C)cccc2C)n(-c2ccccc2)n1 3.37%
CCCOc1cccc(C2c3c(oc4ccc(F)cc4c3=O)C(=O)N2CCCN2CCOCC2)c1 (configuration not stated) 43.1%
CC(C)c1nn2c(=O)cc(COC(=O)C3CCCCC3)nc2s1 -11.5%
Cc1cc(Br)cc(C)c1NC(=O)c1sc2ncn(Cc3cccc(F)c3)c(=O)c2c1C 5.82%
CC1CCN(C(=O)c2cc3c(=O)n(C)c4cc(Cl)ccc4c3s2)CC1 -24.5%
CCCOc1ccc(-c2nonc2NC(=O)c2ccco2)cc1OCCC 1.31%
O=C(Cn1c(-c2cccs2)cc2ccccc21)N1CCN(c2ccc(Cl)cc2)CC1 -0.328%
CCOc1ccc(C2C(C(=O)Nc3ccccc3)=C(C)Nc3nc(-c4ccccc4)nn32)cc1OC (configuration not stated) -0.395%
Cc1ccc(NC(=O)Cn2c(=O)c3ccc(Cl)cc3n3nncc23)cc1 -22.3%
CCNC(=O)c1ccc(C)c(-n2c(C)nc3cccnc32)c1 3.56%
Cc1cc(C)n(CCc2nc3c4ccccc4nc(SCc4ccc(F)cc4)n3n2)n1 1.33%
O=c1c2cnn(-c3ccc(F)cc3)c2ncn1Cc1ccccc1Cl 4.7%
COc1ccc(OC)c(NC(=O)C(C)n2c(=O)cc(C)c3c(C)nn(-c4ccccc4)c32)c1 (configuration not stated) 3.69%
COc1ccc(-c2cn3c(n2)sc2cc(C(=O)NCCC4=CCCCC4)ccc23)cc1 9.12%
CCc1ccc(N2CC(c3nnc(NC(=O)c4ccco4)s3)CC2=O)cc1 (configuration not stated) -0.164%
N#Cc1ccccc1NC(=O)CSc1nc(-c2ccccc2)cc(C(F)(F)F)c1C#N -1.57%
COc1ccc(C)cc1NC(c1nnc(-c2ccccc2)o1)c1ccc(F)cc1Cl (configuration not stated) 5.7%
CCOC(=O)c1c(NC(=O)c2ccc(C)cc2)sc2c1CCCCC2 1.85%
Cc1c(C(=O)Nc2ccc(F)cc2F)oc2c1-c1nn(Cc3c(F)cccc3Cl)cc1CC2 -5.21%
O=C(NC1CC(=O)N(c2ccc(F)cc2)C1)C1CCCC1 (configuration not stated) 27.8%
Cc1ccc(Cc2cnc(NC(=O)c3ccc4c(c3)CC(c3ccccc3)OC4=O)s2)cc1 (configuration not stated) -14.3%
Cc1ccc(Nc2nc(-c3ccccc3)nc3ccccc23)cc1 1.02%
COc1cc(Cl)c(C)cc1NC(=O)c1cc(S(=O)(=O)N2CCCC2)ccc1F 3.51%
Cc1ccc(-n2cnc3cc(C(=O)NCCC4=CCCCC4)ccc32)c(C)c1 2.9%
Cc1cc(NC(=O)c2ccccc2F)ccc1-c1nc2ccccc2s1 2.6%
CCc1ccc(NC(=O)c2sc(-n3nc(C)c(CCC(C)C)c3C)nc2C)cc1 3.03%
Cc1cccc(C)c1OCC(=O)N(Cc1ccccc1F)C1CCS(=O)(=O)C1 (configuration not stated) 9.05%
COc1ccc(C(=O)N2CC(=O)Nc3ccc(Br)cc3C2c2ccc(F)cc2)cc1OC (configuration not stated) -3.72%
CCOC(=O)c1c(NC(=O)/C(C#N)=C/c2ccc(OC)cc2)sc2c1CCC2 -5.71%
CCOC(=O)Cc1ccc(NC(=O)N(Cc2ccc(OC)cc2)C2CCN(C(C)=O)CC2)cc1 15.9%
CCOC(=O)c1c(C)[nH]c(CCC(=O)NCc2ccc(OC)c(OC)c2)c1C -4.96%
CCn1c2ccccc2c2nnc(N3CCN(c4cccc(Cl)c4)CC3)nc21 13.3%
COc1ccc(-c2noc(CCCC(=O)Nc3cccc(Cl)c3C)n2)cc1 0.235%
Cc1ccc(CN2CCSc3ccc(C(=O)NCc4ccc(OC(C)C)cc4)cc32)cc1 3.47%
Cc1ccc(N2CCn3c2nc2c3c(=O)n(C/C=C/c3ccccc3)c(=O)n2C)cc1C -6.58%
CSc1nn(CC(=O)Nc2ccccc2F)c(N)c1S(=O)(=O)c1ccccc1 -3.56%
CC(Cc1ccc(O)c(O)c1)(NN)C(=O)O (configuration not stated) 2.1%
COCc1cc(C)nc2sc(C(=O)Nc3ccccc3O)c(N)c12 16.2%
COc1ccc(C2CC(=O)c3c([nH]c(C(=O)OCc4ccccc4)c3C)C2)cc1 (configuration not stated) -29.7%
Cc1ccc(OCCn2cc(C(=O)c3cccs3)c3ccccc32)cc1 -9.06%
COc1cccc(/C=C/c2onc(C)c2S(=O)(=O)N2CCC(C(=O)N3CCCCC3)CC2)c1 2.04%
COc1ccccc1-c1c(C)nn2c(-c3ccccc3)cc(-c3ccccc3)nc12 -10%
COc1ccc(CNC(=O)Cn2c(=O)nc(-c3ccccc3)c3cc(Cl)ccc32)cc1OC -4.86%
Cc1cccc(N2CCN(C(=O)Cn3nc(C)c4sc5ccccc5c4c3=O)CC2)c1C 9.33%
Cc1ccccc1NC(=O)c1cc2c(-c3ccccc3)nn(-c3ccccc3)c2s1 25%
COc1ccccc1NC(=O)C1=C(C)Nc2c(C(=O)Nc3ccc(C)cc3)cnn2C1c1cccc(OC)c1OC (configuration not stated) -9.51%
CCc1ccc(NCc2cc3ccc(OC)cc3n(CC(=O)Nc3ccccc3C)c2=O)cc1 -2.91%
CC(=O)c1cccc(NC(=O)CSc2nc3c(c(=O)[nH]2)CCC3)c1 2.87%
COc1ccc(CCC(=O)NCc2ccc3c(c2)CCN3C(=O)c2ccc(Cl)cc2)cc1 -20.8%
COC(=O)c1ccc(Cl)cc1NC(=O)Nc1nnc(N(C)C2CCCCC2)s1 -3.72%
CCc1ccccc1S(=O)(=O)Cc1ccc(C(=O)NCc2ccc(Cl)cc2)o1 0.314%
CCc1ccc(C(=O)CC2(O)C(=O)N(CCc3ccccc3)c3ccc(Br)cc32)cc1 (configuration not stated) 6.81%
CCc1c(C)sc2c1CCN(Cc1cccc(OC)c1)C2c1ccccc1 (configuration not stated) 7.73%
CCC1=Nc2cc(C(=O)NCCc3ccc(OC)c(OC)c3)ccc2Sc2ccccc21 73.4%
CCCCN(CCCC)CCNC(=O)Cn1nc(CC)n2c(cc3sccc32)c1=O -13%
CCc1nc2ccccc2n2c(-c3ccc(C)cc3)c3c(=O)n(C)c(=O)n(C)c3c12 1.56%
O=C(Cn1c(=O)n(-c2ccc(F)cc2)c(=O)c2sc3ccccc3c21)NC1CCCC1 16.7%
COc1ccc(-n2nc3ccc(NC(=O)c4c(OC)cccc4OC)cc3n2)cc1 4.7%
CCc1ccc2oc(C(=O)Nc3ccccc3OC)cc(=O)c2c1 -0.347%
Cc1csc2nc(COC(=O)CNC(=O)c3ccc(F)cc3)cc(=O)n12 -0.329%
COc1ccc(CSc2nc3ccncc3n2CC(=O)Nc2cc(C)cc(C)c2)cc1 0.82%
Fc1ccc(Nc2nc(SCc3ccccc3Cl)nc3ccccc23)cc1 -4.41%
Cc1cc(C)cc(NC(=O)C2CCCN(S(=O)(=O)c3cccc4nsnc34)C2)c1 (configuration not stated) 28.7%
Cc1cccc(N2CCN(C(c3ccccc3)c3nnc(-c4ccccc4F)o3)CC2)c1C (configuration not stated) 1.01%
Cc1ccc(C(=O)Nc2ccccc2C(=O)OCc2cc(=O)n3nc(C(C)C)sc3n2)cc1 3.83%
Cc1ccc(C)c(NC(=O)CN(C)S(=O)(=O)c2cccc3cccnc23)c1 10.2%

outcome, inactive:
COc1ccc(C)cc1NS(=O)(=O)c1cnc(N)nc1
COc1cccc(CNC(=O)C2CCN(S(=O)(=O)c3c(C)noc3/C=C/c3cccs3)CC2)c1
CCOC(=O)c1sc2ncn(CC(=O)Nc3cc(Cl)ccc3C)c(=O)c2c1C
COCCCNC(=O)c1ccc(Cn2c(SCc3ccc(F)cc3)nc3cccnc32)cc1
O=C(OCc1cc(=O)n2nc(-c3cccs3)sc2n1)c1cccc(F)c1
Cc1ccc(CN(Cc2ccco2)C(=O)c2ccccc2Br)o1
Cc1nc(-c2ccc(S(=O)(=O)N3CCN(c4cccc(C(F)(F)F)c4)CC3)cc2)co1
COc1cccc(-c2csc(-c3c(N)c(C(=O)c4ccc5c(c4)OCO5)n4ccccc34)n2)c1
Cc1ccc(CNC(=O)c2c[nH]c3ccc(S(=O)(=O)N4CCOCC4)cc3c2=O)cc1
CC(=O)c1ccc(S(=O)(=O)Nc2ccc(-c3cn4c(C)csc4n3)cc2)cc1
COc1ccc(S(=O)(=O)N2CCC(N3CCN(Cc4ccccc4)C(=O)C3=O)CC2)cc1
COCCCNC(=O)Cn1c(=O)n(-c2cccc(C)c2)c(=O)c2c1c1cc(C)ccc1n2C
CCOc1ccc(C2=NC(c3ccncc3)=Nc3ccc(C)cc3N2)cc1OCC
COc1ccc(NC(=O)CSc2nc(-c3cccs3)cc(C(F)(F)F)n2)cc1Cl
Cc1ccc(CNC(=O)C(NS(=O)(=O)c2cccs2)C(C)C)cc1 (configuration not stated)
Cc1ccc(CSC2=Nc3ccccc3C3=NC(CCC(=O)NC4CCCCC4)C(=O)N23)cc1 (configuration not stated)
CCOC(=O)c1c(C)[nH]c(C)c1S(=O)(=O)NCC(=O)Nc1ccc(C)cc1C
NC(=O)C1CCN(C(=O)c2ccc3c(c2)N(Cc2cccc(Cl)c2)C(=O)c2ccccc2S3=O)CC1 (configuration not stated)
CCOc1ccccc1NC(=O)C1CCC(CNS(=O)(=O)c2ccc3c(c2)CCCC(=O)N3)CC1 (configuration not stated)
COc1ccc(CC(=O)NCCS(=O)(=O)N2CCN(c3ccccc3F)CC2)cc1OC
